The supplement of paper PMC4166925
± gives the standard deviation of the averaged measurements. Over roughly 33,000 sequences, “E-score (dimensionless, -0.5 to 0.5)” has its median near -0.049; the highest 2% begin near 0.37. Some of the results follow.

The sequences below were run on T1, PmTbr T-box DNA-binding domain (GST fusion) (assay: PBM E-score of 8-mer (E-score (dimensionless, -0.5 to 0.5)); Tbr is Tbrain of the sea star Patiria miniata (Pm) or the sea urchin Strongylocentrotus purpuratus (Sp); higher = stronger binding preference; most listed sequences are background and not binding sites). Conditions: the construct has about 5 more residues each side.
T1 sequence: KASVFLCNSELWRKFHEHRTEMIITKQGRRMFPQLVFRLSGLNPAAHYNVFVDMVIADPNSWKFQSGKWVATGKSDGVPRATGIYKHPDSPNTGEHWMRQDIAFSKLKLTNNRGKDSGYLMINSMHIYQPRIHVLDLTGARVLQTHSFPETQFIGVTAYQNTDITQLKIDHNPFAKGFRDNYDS
Procedure, shortened: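 Primer extension turned Universal Agilent oligonucleotide arrays double-stranded. They were incubated with 200 nM protein in PBS (pH 7.5); the protein was a GST-fused Tbr T-box DNA-binding domain expressed in BL21 E. coli at 20 °C and purified on glutathione. Every ungapped 8-mer was scored from the scanned, quantified probe intensities, and the Universal PBM Analysis Suite gave each an enrichment E-score averaged over duplicate arrays.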

Row | Sequence | PBM E-score of 8-mer
1 | CTACACCA | 0.14 ± 0.0059
2 | ATTCACCA | 0.0566 ± 0.052
3 | CTTGTACA | -0.11 ± 0.0094
4 | CGTTCTGC | -0.109 ± 0.016
5 | ACGTGTGG | 0.362 ± 0.017
6 | CTCGGCAC | 0.2625 ± 0.00037
7 | ACCAAGCC | -0.217 ± 0.008
8 | AGTTGTGG | 0.122 ± 0.039
9 | AAGGCTAC | -0.14 ± 0.014
10 | CCCAGAAA | -0.167 ± 0.029
11 | TAGCCGGA | -0.158 ± 0.012
12 | GGGCAAAC | -0.202 ± 0.096
13 | AACGACAG | -0.0178 ± 0.014
14 | GACGCCAA | 0.213 ± 0.01
15 | GAAGAGTA | -0.112 ± 0.019
16 | CCAAGCTA | -0.114 ± 0.043
17 | AAATAGAG | -0.0742 ± 0.036
18 | CGGGAACA | 0.0181 ± 0.014
19 | CCGATTTA | -0.144 ± 0.052
20 | ACCTAAGA | -0.0522 ± 0.064
21 | AGGAATAA | -0.235 ± 0.0072
22 | ACAAATCT | 0.0395 ± 0.0062
23 | ATACCATG | -0.0778 ± 0.03
24 | ACCCTGCC | 0.0656 ± 0.029
25 | GGCTCGCA | 0.136 ± 0.053

Row | Sequence | PBM E-score of 8-mer
26 | GCACAATA | -0.0261 ± 0.048
27 | ATTGGAAG | -0.316 ± 0.051
28 | GATGCGAA | 0.186 ± 0.038
29 | ATGTATCC | -0.237 ± 0.033
30 | TGTCGAAA | 0.226 ± 0.043
31 | CGACTTAA | 0.106 ± 0.017
32 | CGAACTGC | 0.0894 ± 0.015
33 | AGAAACTG | -0.138 ± 0.075
34 | CTCCTGCC | -0.0358 ± 0.0023
35 | GGCAATAA | -0.006 ± 0.01
36 | AGTAAGGG | -0.082 ± 0.04
37 | ATCTAGTG | -0.0333 ± 0.073
38 | CAGATTGA | -0.0695 ± 0.024
39 | CAATAGTG | 0.127 ± 0.061
40 | GGTGGAGA | 0.0656 ± 0.021
41 | CTGGTGAC | 0.221 ± 0.045
42 | GGAAAGCA | -0.00256 ± 0.025
43 | GATCAAGC | -0.0603 ± 0.017
44 | AGGGGTGG | 0.212 ± 0.04
45 | CAAGACTG | -0.152 ± 0.0087
46 | CACACGTG | 0.376 ± 0.019
47 | GAGCACCA | -0.0664 ± 0.018
48 | CCGCCAAG | 0.0362 ± 0.074
49 | CATCCGTA | -0.148 ± 0.018
50 | CGCCTGGC | 0.206 ± 0.022

Row | Sequence | PBM E-score of 8-mer
51 | ACAAGACG | -0.0289 ± 0.038
52 | GAAGGTGA | 0.406 ± 0.011
53 | ACTACTGA | -0.256 ± 0.0037
54 | GGGATGAA | -0.181 ± 0.045
55 | AAAACTTC | 0.0341 ± 0.11
56 | AGTGCTTC | -0.15 ± 0.097
57 | AGCATTAC | -0.216 ± 0.015
58 | ACTGCCGG | 0.056 ± 0.077
59 | AAAGTATC | 0.0285 ± 0.0035
60 | ATAAACCA | -0.164 ± 0.04
61 | ATCGCCTC | 0.309 ± 0.025
62 | AATCTCCG | -0.156 ± 0.013
63 | TGCCTGAA | -0.204 ± 0.061
64 | CTCGGCCC | -0.00153 ± 0.0094
65 | ACTCACAG | 0.314 ± 0.043
66 | CTCCGATC | -0.023 ± 0.038
67 | AGGAATAG | -0.254 ± 0.029
68 | GAGGCATA | -0.235 ± 0.005
69 | CATTTCAA | -0.0254 ± 0.069
70 | GCTGGAAA | -0.0875 ± 0.022
71 | AGCTGACC | -0.327 ± 0.034
72 | CGCGAACG | 0.375 ± 0.017
73 | AAACGATC | 0.138 ± 0.04
74 | CGGCCTCC | -0.251 ± 0.078
75 | GAATAGGC | -0.104 ± 0.12

Row | Sequence | PBM E-score of 8-mer
76 | AAGGCCGA | -0.191 ± 0.09
77 | ACCTACGC | 0.0812 ± 0.064
78 | AGTAACAT | -0.247 ± 0.068
79 | AGACGTAG | -0.255 ± 0.0081
80 | ATGGACGC | -0.173 ± 0.026
81 | AGGGCACA | -0.00764 ± 0.063
82 | GATCCTCA | 0.167 ± 0.0084
83 | GGGATCCC | -0.239 ± 0.004
84 | ATGCCAGC | -0.0462 ± 0.0027
85 | CAGTCTCA | 0.209 ± 0.019
86 | AGCATGAT | -0.00898 ± 0.032
87 | GCGACAAA | 0.36 ± 0.013
88 | ACACTGAA | 0.069 ± 0.069
89 | ATCTCAAA | -0.29 ± 0.025
90 | GATATCAA | 0.0228 ± 0.067
91 | GAACTGCA | -0.174 ± 0.064
92 | TGTGGCAA | 0.252 ± 0.027
93 | GACTCCAA | -0.118 ± 0.0065
94 | CAAGACTA | -0.173 ± 0.059
95 | CATGGGAG | -0.131 ± 0.057
96 | GCTACAGA | 0.105 ± 0.004
97 | CCTGACCA | 0.0195 ± 0.044
98 | CGCGGTAG | 0.0761 ± 0.015
99 | CAGACTTA | -0.148 ± 0.0086
100 | AGATTGAA | -0.235 ± 0.04

Row | Sequence | PBM E-score of 8-mer
101 | TCTCCGAA | -0.176 ± 0.0043
102 | AACATACC | 0.0158 ± 0.017
103 | TCATACCA | -0.0579 ± 0.029
104 | ACAGGATA | -0.138 ± 0.028
105 | GCGGTAAA | -0.0591 ± 0.00065
106 | ATACCTCC | -0.0427 ± 0.026
107 | ACGCTCCA | -0.119 ± 0.0053
108 | CCCGCCCG | -0.222 ± 0.022
109 | ACCTCCCC | 0.00887 ± 0.0031
110 | ATTGTCTA | -0.152 ± 0.0039
111 | ATCTGATA | -0.0818 ± 0.094
112 | GCAATCGC | 0.0879 ± 0.015
113 | AATGGCTC | -0.104 ± 0.041
114 | CGTAGGCA | -0.194 ± 0.035
115 | CTAATTGA | 0.0172 ± 0.067
116 | CCACAATA | -0.124 ± 0.072
117 | ATAACAAC | 0.141 ± 0.035
118 | ATATTAAC | -0.0921 ± 0.14
119 | GCTCGTTA | -0.0211 ± 0.018
120 | CCTAACTC | 0.0221 ± 0.055
121 | CAAACGTC | -0.233 ± 0.045
122 | GCATACCC | -0.23 ± 0.056
123 | CTCTGCCA | 0.0266 ± 0.038
124 | CTCGGACA | 0.0381 ± 0.03
125 | GAACCCGA | -0.00182 ± 0.038

Row | Sequence | PBM E-score of 8-mer
126 | CAGAACGC | -0.147 ± 0.082
127 | GCACTACC | 0.034 ± 0.025
128 | AAAAGAAA | -0.0381 ± 0.04
129 | AGGTAACA | 0.289 ± 0.02
130 | GAATGAAC | -0.195 ± 0.049
131 | GCAATCCC | -0.173 ± 0.014
132 | AAGCAGCG | 0.0789 ± 0.062
133 | ACAGTCGA | -0.146 ± 0.09
134 | CTGTTCTC | 0.0542 ± 0.017
135 | CGCGAACC | 0.328 ± 0.0044
136 | AAGTTTTC | -0.0473 ± 0.066
137 | CGACAAAG | 0.199 ± 0.0092
138 | ATTCCTGC | -0.0932 ± 0.013
139 | CAAATCTA | -0.0568 ± 0.0021
140 | CCCTCGGC | -0.103 ± 0.022
141 | GAGTCTCC | -0.291 ± 0.022
142 | GCAAACAC | 0.294 ± 0.023
143 | AAAGTCCT | -0.232 ± 0.0056
144 | ACGCAAAG | -0.0407 ± 0.019
145 | GTGTCTAA | 0.247 ± 0.00057
146 | ACGACTTG | 0.196 ± 0.013
147 | GTCCTATA | -0.406 ± 0.045
148 | CATGAAGA | -0.0102 ± 0.0076
149 | AAGGGAGT | 0.0112 ± 0.036
150 | CGACGATA | -0.00792 ± 0.073

Row | Sequence | PBM E-score of 8-mer
151 | AAATGCAA | -0.138 ± 0.059
152 | AACGTGGA | -0.224 ± 0.04
153 | AGACGAAG | -0.189 ± 0.065
154 | AGTTCTGA | -0.113 ± 0.0066
155 | CGCGTATC | 0.192 ± 0.019
156 | ATTCCGGG | -0.138 ± 0.033
157 | AGGTAATC | 0.0129 ± 0.036
158 | ATAAGACA | -0.234 ± 0.01
159 | CAACTTCA | -0.0479 ± 0.0083
160 | TGGGAACA | 0.109 ± 0.054
161 | AAAGGGCA | -0.0167 ± 0.042
162 | CTGCTTAC | -0.068 ± 0.033
163 | AGCCCACG | -0.25 ± 0.017
164 | ACAACAGC | 0.193 ± 0.01
165 | ATCAATCC | -0.266 ± 0.019
166 | CCGTCGAA | -0.136 ± 0.0057
167 | AAATATTA | 0.0227 ± 0.073
168 | ACGAGGTA | -0.046 ± 0.031
169 | CCCCATAG | -0.0909 ± 0.046
170 | GTGGACAC | 0.188 ± 0.022
171 | CATATTTC | 0.004 ± 0.022
172 | CCGATTGC | -0.0854 ± 0.016
